Screen size: about 190,000 compounds; about 520 (0.27%) were called active. Inconclusive means that the source gave no clear call. Such entries were picked first, then a sample of the others.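 How the source made its calls: active means GTP binding activity at least 20 points away from the 100% control level, either lower or higher; inconclusive means compound flagged as likely green fluorescent, judged across all proteins; inactive means the rest.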
What follows are molecules tested against Ras-related C3 botulinum toxin substrate 1 (Homo sapiens) (UniProt P63000) (assay: wildtype Rac1 GTP binding modulators, primary screen, biochemical, GST-Rac1 beads, flow cytometry, multiplex (AID 757)). Conditions: fluorescent GTP binding, at 10 µM, actives lie on both sides, 0 = cold GTP competed, 100 = untreated.
For `O=C(COc1ccc(Cl)cc1)N1CCN(C(=O)c2cccs2)CC1`, the GTP binding activity (% of control) was inactive: 101%.
With `O=C(CS(=O)(=O)c1c[nH]c2ccccc12)N1CCc2ccccc21` the GTP binding activity (% of control) was inactive: 95%.
For `Cc1nn(C(C)C(=O)NCC2CCCO2)c(C)c1[N+](=O)[O-]` (stereo not given), the GTP binding activity (% of control) was inactive: 100%.
In the case of `CCOC(=O)c1nn(-c2cccc(OC)c2)c2nc(Nc3ccccc3)cc(=O)n12`, the GTP binding activity (% of control) is reported as inconclusive: 107%.
With `Cn1nc(C(=O)Nc2cccnc2)c2ccccc2c1=O` the GTP binding activity (% of control) was inactive: 85%.
In the case of `Cc1ccc(C(C(=O)NC(C)(C)C)N(Cc2cccnc2)C(=O)C(=O)NC2CCCCC2)o1` (stereo not given), the GTP binding activity (% of control) is reported as inactive: 103%.
`CCOC(=O)c1c(NC(=O)COC(=O)Cn2c(C)nc3ccccc32)sc2c1CCCC2` was tested, and the GTP binding activity (% of control) was inconclusive: 104%.
With `C/C(CCc1ccc2c(c1)OCO2)=N\N=C1\NC(=O)CC(C(=O)Nc2ccccc2)S1` (stereo not given) the GTP binding activity (% of control) was inconclusive: 113%.
In the case of `Cc1ccc(CN(C(=O)Cn2nnc3ccccc32)C(C(=O)NCc2ccco2)c2cccs2)cc1` (stereo not given), the GTP binding activity (% of control) is reported as inconclusive: 97%.
In the case of `COC(=O)c1ccccc1NC(=O)CSCC(=O)Nc1ccccc1OC`, the GTP binding activity (% of control) is reported as inactive: 96%.
`CCCCOc1ccc(C(=O)N/N=C/c2cn[nH]c2-c2ccc(OC)c(OC)c2)cc1` was tested, and the GTP binding activity (% of control) was inconclusive: 94%.
With `CC(=O)c1c(C)nc(-c2ccccc2)n1O` the GTP binding activity (% of control) was inconclusive: 101%.
In the case of `COc1cc(/C=N/NC(=O)C(Cc2c[nH]c3ccccc23)NC(=O)OCc2ccccc2)cc([N+](=O)[O-])c1O` (stereo not given), the GTP binding activity (% of control) is reported as active: 78%.
For `CN1C2CCC1/C(=C\c1ccccc1)C(=O)/C2=C\c1ccccc1`, the GTP binding activity (% of control) was inconclusive: 113%.
`COc1ccc(CCNC(=O)Cn2nc(C(=O)O)c3ccccc3c2=O)cc1OC` was tested, and the GTP binding activity (% of control) was inconclusive: 90%.
In the case of `O=C(Nc1cccc2nsnc12)c1ccc(F)cc1`, the GTP binding activity (% of control) is reported as inconclusive: 101%.
In the case of `O=C1CN(CC(=O)Nc2cccc(Cl)c2Cl)c2ccccc2N1`, the GTP binding activity (% of control) is reported as inconclusive: 91%.
For `CCC(Oc1ccc2ccccc2c1)C(=O)O` (stereo not given), the GTP binding activity (% of control) was inconclusive: 127%.
In the case of `COc1ccc2oc(=O)c(C(=O)N3CCN(c4ccccc4F)CC3)cc2c1`, the GTP binding activity (% of control) is reported as inconclusive: 97%.
For `Cc1ccc(-c2ccc(/C=C(\C#N)C(=O)Nc3cc(C)nn3-c3ccccc3)o2)cc1`, the GTP binding activity (% of control) was inactive: 97%.
`O=C(Cn1cnc2c(nnn2Cc2ccc(F)cc2)c1=O)NC1CCCC1` was tested, and the GTP binding activity (% of control) was inconclusive: 97%.
In the case of `C/C(N)=C(/C#N)C(=O)CSc1cc(C)c2ccccc2n1`, the GTP binding activity (% of control) is reported as inactive: 99%.
`COc1ccc(-c2nnc3n2N=C(C)CS3)cc1OC` was tested, and the GTP binding activity (% of control) was inactive: 89%.
With `Cc1csc(=Nc2ccccc2)n1Cc1ccco1` the GTP binding activity (% of control) was inactive: 100%.
In the case of `CCCCn1c(N)c(Sc2ccc(C)cc2)c(=O)[nH]c1=O`, the GTP binding activity (% of control) is reported as inconclusive: 109%.
`O=C(N/N=C/c1cccc(O)c1)c1ccc(NC(=O)c2cccc([N+](=O)[O-])c2)cc1` was tested, and the GTP binding activity (% of control) was inconclusive: 98%.
`CC1(C)CC(=O)c2c(O)cc(OCc3ccc([N+](=O)[O-])cc3)cc2O1` was tested, and the GTP binding activity (% of control) was inconclusive: 104%.
With `O=C(CCc1nnc(CCCCc2ccccc2)o1)NCCN1CCCCC1=O` the GTP binding activity (% of control) was inactive: 105%.
For `CCc1nnc2c(N(C)C)nc3ccccc3n12`, the GTP binding activity (% of control) was active: 76%.
With `Cc1cccc2cc(CN(CCCN(C)C)C(=S)NCCc3ccccc3)c(=O)[nH]c12` the GTP binding activity (% of control) was inactive: 101%.
For `C(=N\Nc1nc(Nc2ccccc2)nc(Nc2ccccc2)n1)/c1cccnc1`, the GTP binding activity (% of control) was inconclusive: 92%.
`O=C(NCCn1ccc2ccccc21)c1ccc(S(=O)(=O)N2CCOCC2)cc1` was tested, and the GTP binding activity (% of control) was inactive: 105%.
`O=C(OCc1cc2ccccc2[nH]c1=O)C1CCCO1` (stereo not given) was tested, and the GTP binding activity (% of control) was inconclusive: 105%.
With `Clc1cccc(Cl)c1COc1ccccc1CNn1cnnc1` the GTP binding activity (% of control) was inactive: 103%.
With `Cc1cnc(C(=O)OCC(=O)N(Cc2ccccc2)C(C)C)cn1` the GTP binding activity (% of control) was inactive: 99%.
For `O=C1c2ccccc2C(=O)N1CCCOc1ccccc1`, the GTP binding activity (% of control) was inconclusive: 98%.
`Cc1ccc(OCC(=O)N/N=C\c2ccc(O)cc2)c([N+](=O)[O-])c1` was tested, and the GTP binding activity (% of control) was inconclusive: 94%.
For `CCC(C)(C)NC(=O)c1ccc(S(=O)(=O)N(C)c2ccccc2OC)cc1`, the GTP binding activity (% of control) was inconclusive: 90%.
`Cc1[nH]c2ccccc2c1C(=O)CNc1nccs1` was tested, and the GTP binding activity (% of control) was inconclusive: 397%.
In the case of `CCOc1cc(C2C(C#N)=C(N)OC3=C2C(=O)CC(C)(C)C3)cc([N+](=O)[O-])c1O` (stereo not given), the GTP binding activity (% of control) is reported as inconclusive: 93%.
`O=C(COc1ncnc2cc([N+](=O)[O-])ccc12)NCc1ccc2c(c1)OCO2` was tested, and the GTP binding activity (% of control) was inconclusive: 77%.
With `CCCN(CCC)c1cc(Cl)nc(N)n1` the GTP binding activity (% of control) was inconclusive: 98%.
For `CCCOc1ccc(N2CC(C(=O)Nc3ccc(N4CCOCC4)cc3)CC2=O)cc1` (stereo not given), the GTP binding activity (% of control) was inactive: 102%.
With `COc1ccccc1-n1c(=O)c2c3c(sc2n2c(=S)[nH]nc12)CCC3` the GTP binding activity (% of control) was inconclusive: 95%.
In the case of `COc1ccc(S(=O)(=O)N(C)CC(=O)N2CCOCC2)cc1Cl`, the GTP binding activity (% of control) is reported as inconclusive: 89%.
With `O=c1cc(-c2ccccc2)n(S(=O)(=O)c2ccccc2)o1` the GTP binding activity (% of control) was inactive: 101%.
In the case of `N=c1c(C(=O)NCc2ccco2)cc2c(=O)n3ccccc3nc2n1CCc1ccccc1`, the GTP binding activity (% of control) is reported as active: 72%.
In the case of `COc1cc(NC(=O)c2cccs2)c(OC)cc1NC(=O)CCC(=O)Nc1ccc2ncccc2c1`, the GTP binding activity (% of control) is reported as active: 74%.
For `CCOC(=O)N1CCC(NC(=O)CCc2c(C)nc3c(c(C)nn3C(C)(C)C)c2C)CC1`, the GTP binding activity (% of control) was inconclusive: 103%.
With `COc1cc(NS(=O)(=O)c2ccc(NC(=O)/C=C/c3cccc([N+](=O)[O-])c3)cc2)ncn1` the GTP binding activity (% of control) was active: 79%.
For `Cc1c(Cl)sn(-c2ccc(Cl)cc2)c1=O`, the GTP binding activity (% of control) was inactive: 102%.
For `Cc1ccc2[nH]cc(C(=O)CCl)c2c1`, the GTP binding activity (% of control) was inconclusive: 104%.
With `O=C(O)c1ccccc1SCc1ccc2c(c1)OCO2` the GTP binding activity (% of control) was active: 135% [activator].
With `Cc1nn(C)c(C)c1CNC(=O)c1cnn2c1NC(c1ccccc1)CC2C(F)(F)F` (stereo not given) the GTP binding activity (% of control) was inconclusive: 107%.
In the case of `O=C(COC(=O)/C=C/c1ccc(Cl)cc1)Nc1ccc2c(c1)OCCO2`, the GTP binding activity (% of control) is reported as active: 79%.
With `Cc1ccc2sc(N(CCCN(C)C)C(=O)CN3C(=O)c4ccccc4C3=O)nc2c1C` the GTP binding activity (% of control) was inactive: 94%.
In the case of `CCC(=O)N1c2ccc(S(=O)(=O)N(CCO)Cc3ccccc3)cc2CC1C` (stereo not given), the GTP binding activity (% of control) is reported as inconclusive: 105%.
`Cc1ccc(C(=O)CC(=O)COc2ccc(Cl)cc2C)cc1` was tested, and the GTP binding activity (% of control) was inconclusive: 93%.
`COc1cc(/C=N/NC(=S)Nc2cccc(C(=O)O)c2)cc(OC)c1OC` was tested, and the GTP binding activity (% of control) was inconclusive: 92%.
For `CCOC(=O)N1CCN(C(=O)CSc2ccc3nnc(CCNC(=O)c4ccc(OC)cc4)n3n2)CC1`, the GTP binding activity (% of control) was inactive: 101%.
With `N#C/C(=C\c1ccncc1)c1nc2ccccc2c(=O)[nH]1` the GTP binding activity (% of control) was inconclusive: 93%.
With `O=S(=O)(Nc1cc(Sc2cccc3cccnc23)c(O)c2ccccc12)c1ccccc1` the GTP binding activity (% of control) was inconclusive: 91%.
In the case of `N#Cc1c(N)n(CCCN2CCOCC2)c2nc3ccccc3nc12`, the GTP binding activity (% of control) is reported as inconclusive: 97%.
With `CC(=O)c1c(N2CCN(C)CC2)nc(=S)n(-c2cc(C)ccc2C)c1C` the GTP binding activity (% of control) was inactive: 99%.
For `NNC1=N[C@H]2CS(=O)(=O)C[C@H]2S1`, the GTP binding activity (% of control) was inactive: 104%.
With `CN(C)c1ccc(NC(=O)CN2C(=O)CC(c3ccccc3)=Nc3ccccc32)cc1` the GTP binding activity (% of control) was inconclusive: 91%.
With `N#Cc1nc(COc2ccccc2Cl)oc1NCc1ccc(F)cc1` the GTP binding activity (% of control) was inconclusive: 109%.
With `Cc1ccc(OCC(=O)NCc2cccs2)c([N+](=O)[O-])n1` the GTP binding activity (% of control) was inactive: 96%.
`Cc1ccc(CSc2nnc(-c3ccccc3N)c(=O)[nH]2)cc1` was tested, and the GTP binding activity (% of control) was active: 120% [activator].
`COc1ccc(/C=C2/SC(=O)N(CC(=O)Nc3cc(C)on3)C2=O)cc1OC` was tested, and the GTP binding activity (% of control) was inconclusive: 108%.
For `Fc1cccc(Cl)c1-c1nnc2ccc(C(F)(F)F)cn12`, the GTP binding activity (% of control) was inactive: 98%.
In the case of `CN(C)c1nnnn1-c1ccccc1Oc1ncc(C(F)(F)F)cc1Cl`, the GTP binding activity (% of control) is reported as inconclusive: 92%.
With `NS(=O)(=O)c1ccc(CCNC(=O)CN2CCC(Cc3ccccc3)CC2)cc1` the GTP binding activity (% of control) was inconclusive: 91%.
`O=C(/C=C/c1ccc(N2CCC(c3ccccc3)=N2)cc1)c1ccccc1` was tested, and the GTP binding activity (% of control) was inconclusive: 351%.
With `Cc1cc(C)c(O)c(-c2cc(C(=O)Nc3ccc(S(=O)(=O)N4CCOCC4)cc3)[nH]n2)c1` the GTP binding activity (% of control) was inconclusive: 92%.
With `Cn1c(=O)n(C)c2cc([N+](=O)[O-])c(N3CCN(S(=O)(=O)c4ccc5ccccc5c4)CC3)cc21` the GTP binding activity (% of control) was inconclusive: 90%.
With `Cc1ccc(-c2csc(NC(=O)CCNC(=O)c3ccccc3Cl)n2)cc1` the GTP binding activity (% of control) was inactive: 101%.
`CCOc1ccccc1/C=N/NC(=O)c1cccc(S(=O)(=O)N(CC)CC)c1` was tested, and the GTP binding activity (% of control) was inconclusive: 96%.
With `O=C(O)CC/C(=C\c1cccc(NC(=O)c2ccccc2Cl)c1)c1nc2ccccc2s1` the GTP binding activity (% of control) was inactive: 93%.
With `O=C(NC(=S)Nc1ccc2c(c1)OCCO2)c1cccc2ccccc12` the GTP binding activity (% of control) was inactive: 102%.
`CCC(=O)Nc1nc(-c2ccccc2)ns1` was tested, and the GTP binding activity (% of control) was inconclusive: 107%.
With `Cc1ccc(S(=O)(=O)CC(CN2CCCCC2)N2CCCCC2)cc1` (stereo not given) the GTP binding activity (% of control) was inconclusive: 90%.
With `Cc1ccc(OCC(=O)Nc2ccc3c(c2)CCC3)c([N+](=O)[O-])n1` the GTP binding activity (% of control) was inconclusive: 93%.
For `COc1ccc(C2CC(C(F)(F)F)n3nc(C(=O)NCc4cn(C)nc4C)c(Cl)c3N2)cc1` (stereo not given), the GTP binding activity (% of control) was inconclusive: 105%.
For `COc1ccc(N2CCN(c3nc(=S)n(-c4ccccc4)c(C)c3C(C)=O)CC2)cc1`, the GTP binding activity (% of control) was inconclusive: 106%.
In the case of `COc1ccc(/C=N/NC(=O)c2ccncc2)cc1Cn1nc([N+](=O)[O-])c(Br)c1C`, the GTP binding activity (% of control) is reported as active: 76%.
With `CCOC(=O)c1ccc(Nc2ccc(-c3ccc(OC)c(OC)c3)nn2)cc1` the GTP binding activity (% of control) was inconclusive: 102%.
With `CN(C)C(=O)C1CCC(=O)N1Cc1cccs1` (stereo not given) the GTP binding activity (% of control) was inactive: 95%.
`COC(=O)c1ccc(NC(=O)CSc2nncn2C)cc1` was tested, and the GTP binding activity (% of control) was inconclusive: 103%.
For `COc1cc(/C=N/NC(=S)Nc2cccnc2)cc(OC)c1O`, the GTP binding activity (% of control) was active: 77%.
